ChEMBL document CHEMBL4888484, “Replenishing the malaria drug discovery pipeline: Screening and hit evaluation of the MMV Hit Generation Library 1 (HGL1) against asexual blood stage Plasmodium falciparum ,using a nano luciferase reporter read-out” (2022)
Among all 150,000 compounds or so, about 540 (0.36%) showed an effect of 50% or more. The list shows a part of the results.

Each compound was assayed on Plasmodium falciparum (assay: Primary screen in NF54 nanoGlo assay, in single point, at 2uM, 72h; a lower Z score goes with more inhibition). Conditions: timepoint 72 hour.
Format: functional, Erythrocyte
With `O=C(N[C@H]1CC[C@@H]1O)c1noc2c1CCc1ccccc1-2` the “% Inhibition” value was -15% and the Z score was 1.9.
For `COc1ccc(S(=O)(=O)N2CCOCC2)cc1NC(=O)c1cc2c(s1)CCCCC2`, the “% Inhibition” value was -14% and the Z score was 1.93.
In the case of `Cc1nnsc1C(=O)N1CCO[C@H](c2ccccc2)C1`, the “% Inhibition” value is reported as -6% and the Z score is reported as 0.87.
`CC(=O)NCC(=O)NCC(=O)N(C)[C@H](c1ccccc1C)C(C)C` was tested, and the “% Inhibition” value was 1% and the Z score was -0.23.
In the case of `CCCNC(=O)C1CCN(c2nc3ncn(CC(N)=O)c(=O)c3s2)CC1`, the “% Inhibition” value is reported as -6% and the Z score is reported as 0.92.
For `Cc1noc(C)c1C(=O)N1CCCCC[C@H]1c1c(Cl)cnn1C`, the “% Inhibition” value was -12% and the Z score was 1.08.
With `O=C(NCCC(F)(F)F)NCCC1(O)CCC1` the “% Inhibition” value was -5% and the Z score was 0.62.
In the case of `CN(Cc1ncon1)C(=O)[C@H](O)C1CCCCC1`, the “% Inhibition” value is reported as 2% and the Z score is reported as -0.41.
With `CCC(CC)C(=O)N(C)C1CCN(c2ccccn2)CC1` the “% Inhibition” value was 5% and the Z score was -0.48.
`Cc1ccc2sc(C(=O)N3CCC4(CC3)COC(=O)N4)cc2c1` was tested, and the “% Inhibition” value was -13% and the Z score was 2.02.
For `CCO[C@H]1C[C@@H](NC(=O)c2ccc(F)cc2O)C1`, the “% Inhibition” value was 1% and the Z score was -0.11.
With `CC(C)[C@@H]1CCCCN1C(=O)Nc1cccn(CC(F)(F)F)c1=O` the “% Inhibition” value was -5% and the Z score was 0.83.
`NC(=O)CCN1CCN(S(=O)(=O)CC2CCCC2)CC1` was tested, and the “% Inhibition” value was -9% and the Z score was 1.17.
In the case of `Cc1nn(C)c(C)c1CNC(=O)Nc1ccnn1C[C@H]1CCOC1`, the “% Inhibition” value is reported as -7% and the Z score is reported as 1.29.
`CC1COCC(C)N1C(=O)Cc1cccs1` (stereo not drawn) was tested, and the “% Inhibition” value was -4% and the Z score was 0.51.
`CC(C)c1ccc(NC(=O)c2cccc(-c3noc(C4CCC4)n3)c2)cc1` was tested, and the “% Inhibition” value was -2% and the Z score was 0.42.
`CCCC1(C2CCN(Cc3ccc(OCC)cc3)CC2)NC(=O)N(CC2CCCO2)C1=O` (stereo not drawn) was tested, and the “% Inhibition” value was -7% and the Z score was 0.85.
`CN(C)CCN(Cc1ccco1)S(=O)(=O)c1cccnc1` was tested, and the “% Inhibition” value was -1% and the Z score was 0.05.
`CCOC(=O)NC(=O)C(=CNc1cccc(C(F)(F)F)c1)C(=O)NC(=O)OCC` was tested, and the “% Inhibition” value was -29% and the Z score was 3.43.
In the case of `CN1CC[C@H](NC(=O)c2ccccc2-n2cnnc2)C1=O`, the “% Inhibition” value is reported as -11% and the Z score is reported as 1.34.
With `Oc1ccc(-c2nc(-c3c[nH]c4ccccc34)cs2)cc1` the “% Inhibition” value was 37% and the Z score was -1.72.
For `CCOC(=O)c1nc(-c2ccccn2)c(-c2cn(C)c3ccccc23)nc1NC(=O)c1ccccc1`, the “% Inhibition” value was 2% and the Z score was -0.29.
For `C[C@H]1C(=O)NCCN1CCc1nc(-c2ccccc2)no1`, the “% Inhibition” value was -11% and the Z score was 1.74.
For `CCOC(=O)[C@@H](Cc1ccc(O)cc1)NC(C)=O`, the “% Inhibition” value was -15% and the Z score was 1.84.
